Source: the DeepSol protein solubility set

Assay: soluble on expression in E. coli; label from the status in PepcDB or PDB records

Row | Sequence | soluble on expression in E. coli
1 | MGRRIRIQRKGAGGIFKSHNKHRKGASKLRPLDYAERHGYIKGLVKDIIHDPGRGAPLAIIAFRDPYKYKTVKTTVVAAEGMHTGQFIHCGAKAQIQIGNIVPVGTLPEGTTICNVENKSGDRGVIARASGNYATVIAHNPDTKKTRIRLPSGAKKVVQSVNRAMIGLVAGGGRTDKPLLKAGRSYHKYKAKRNSWPRVRGVAMNPVEHPHGGGNHQHIGHPSTVRRDASAGKKVGLIAARRTGRIRGGKPVKFTKEENV | not soluble
2 | MTNSKGLRRGTRYMFARDFRKHGVEHLSTYYTQYKRGDLVDIKTNGAFQKGMPFKAYHGRTGRIFNVTRGAVGIIVNKRVRGNILPKRINIRIEHIKPSKCRTDFLNRVKSNDEKRKAAKSAGQPVPALKRLPVAPRGAHTVTTQNNEPELLAPLRFEIVA | not soluble
